Experimental findings from article PMC7694937 are described below.

By UniProt entry, the sequences of proteins in these tests, tags left out.
UniProt O00303: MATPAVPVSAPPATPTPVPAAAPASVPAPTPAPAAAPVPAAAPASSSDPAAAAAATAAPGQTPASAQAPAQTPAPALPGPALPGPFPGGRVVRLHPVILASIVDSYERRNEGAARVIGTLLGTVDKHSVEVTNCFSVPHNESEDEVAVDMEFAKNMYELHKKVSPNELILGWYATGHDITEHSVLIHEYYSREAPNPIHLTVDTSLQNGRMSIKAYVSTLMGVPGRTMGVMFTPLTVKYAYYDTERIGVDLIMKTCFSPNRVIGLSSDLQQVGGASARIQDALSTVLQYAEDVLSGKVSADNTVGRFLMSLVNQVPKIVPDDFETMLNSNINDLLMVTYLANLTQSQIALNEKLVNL
UniProt P49023: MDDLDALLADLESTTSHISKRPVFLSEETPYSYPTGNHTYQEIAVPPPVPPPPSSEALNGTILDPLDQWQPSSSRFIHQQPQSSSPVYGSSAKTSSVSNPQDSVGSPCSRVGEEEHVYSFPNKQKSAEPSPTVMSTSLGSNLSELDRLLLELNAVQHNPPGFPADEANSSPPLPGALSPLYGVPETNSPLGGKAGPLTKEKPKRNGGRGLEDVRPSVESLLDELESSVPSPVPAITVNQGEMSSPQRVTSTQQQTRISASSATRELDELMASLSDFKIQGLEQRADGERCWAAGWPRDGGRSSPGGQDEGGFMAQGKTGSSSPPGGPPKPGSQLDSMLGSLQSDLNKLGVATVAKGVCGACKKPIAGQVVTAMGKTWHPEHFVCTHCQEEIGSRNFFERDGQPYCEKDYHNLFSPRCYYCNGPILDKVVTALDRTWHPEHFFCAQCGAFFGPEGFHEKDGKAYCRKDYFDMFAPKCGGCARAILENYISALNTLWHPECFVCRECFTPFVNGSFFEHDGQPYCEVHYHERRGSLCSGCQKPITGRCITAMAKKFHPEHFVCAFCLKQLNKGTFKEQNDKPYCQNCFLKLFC

Holding throughout (assay): co-IP; HEK293T cells co-transfected with Flag- and HA-tagged plasmids; lysis in 50 mM Tris-HCl pH 7.5, 300 mM NaCl, 1% Triton-X, 5 mM EDTA, 10% glycerol; IP with anti-Flag antibody and Protein-G Sepharose, immunoblot with anti-HA and anti-Flag; in some panels cells treated with DMSO or ATP (5 mM) for 2 h; Fig. 6d-g shown as pairs of IPs whose antibodies the legend does not name
On the technique in general: Immunoblotting shows a protein as a band on a membrane.

Assay [1] addresses Flag-EIF3S5 (human) (UniProt O00303).
For assay [2], the target named is T1, Flag-P2X7R(26–595) (UniProt Q99572).
T1 sequence: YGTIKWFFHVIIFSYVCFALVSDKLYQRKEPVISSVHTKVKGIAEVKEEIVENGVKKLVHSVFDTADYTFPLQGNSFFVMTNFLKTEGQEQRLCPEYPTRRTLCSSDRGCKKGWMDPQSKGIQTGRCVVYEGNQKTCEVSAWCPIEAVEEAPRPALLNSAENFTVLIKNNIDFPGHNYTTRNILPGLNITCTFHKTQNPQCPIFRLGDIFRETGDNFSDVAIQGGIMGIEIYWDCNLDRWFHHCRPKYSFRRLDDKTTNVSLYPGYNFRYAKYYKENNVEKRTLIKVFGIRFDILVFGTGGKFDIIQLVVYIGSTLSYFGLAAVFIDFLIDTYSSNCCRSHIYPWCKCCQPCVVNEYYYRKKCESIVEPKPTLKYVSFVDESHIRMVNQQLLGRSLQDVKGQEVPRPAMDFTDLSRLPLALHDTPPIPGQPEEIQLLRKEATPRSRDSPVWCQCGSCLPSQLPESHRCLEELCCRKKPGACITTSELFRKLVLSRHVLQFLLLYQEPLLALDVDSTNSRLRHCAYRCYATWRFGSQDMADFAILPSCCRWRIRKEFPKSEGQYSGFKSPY

Assay [3] addresses T2, Flag-P2X7R(29–595) (UniProt Q99572).
T2 sequence: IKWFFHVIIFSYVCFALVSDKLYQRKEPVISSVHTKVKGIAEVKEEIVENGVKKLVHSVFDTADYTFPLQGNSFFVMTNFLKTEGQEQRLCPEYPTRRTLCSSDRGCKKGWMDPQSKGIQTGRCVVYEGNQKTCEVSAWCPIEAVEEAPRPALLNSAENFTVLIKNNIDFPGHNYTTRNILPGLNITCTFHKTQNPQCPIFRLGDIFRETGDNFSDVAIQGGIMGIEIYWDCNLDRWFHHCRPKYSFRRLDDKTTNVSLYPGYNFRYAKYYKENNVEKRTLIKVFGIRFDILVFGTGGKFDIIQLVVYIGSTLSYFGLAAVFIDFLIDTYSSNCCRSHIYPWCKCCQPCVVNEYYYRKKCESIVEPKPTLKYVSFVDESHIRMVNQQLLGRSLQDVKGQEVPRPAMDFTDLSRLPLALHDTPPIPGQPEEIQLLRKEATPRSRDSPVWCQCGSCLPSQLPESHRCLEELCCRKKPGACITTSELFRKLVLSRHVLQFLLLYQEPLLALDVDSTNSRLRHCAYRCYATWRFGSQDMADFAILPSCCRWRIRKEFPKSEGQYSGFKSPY

Assay [4] addresses T3, Flag-P2X7R(K30A) (UniProt Q99572).
T3 sequence: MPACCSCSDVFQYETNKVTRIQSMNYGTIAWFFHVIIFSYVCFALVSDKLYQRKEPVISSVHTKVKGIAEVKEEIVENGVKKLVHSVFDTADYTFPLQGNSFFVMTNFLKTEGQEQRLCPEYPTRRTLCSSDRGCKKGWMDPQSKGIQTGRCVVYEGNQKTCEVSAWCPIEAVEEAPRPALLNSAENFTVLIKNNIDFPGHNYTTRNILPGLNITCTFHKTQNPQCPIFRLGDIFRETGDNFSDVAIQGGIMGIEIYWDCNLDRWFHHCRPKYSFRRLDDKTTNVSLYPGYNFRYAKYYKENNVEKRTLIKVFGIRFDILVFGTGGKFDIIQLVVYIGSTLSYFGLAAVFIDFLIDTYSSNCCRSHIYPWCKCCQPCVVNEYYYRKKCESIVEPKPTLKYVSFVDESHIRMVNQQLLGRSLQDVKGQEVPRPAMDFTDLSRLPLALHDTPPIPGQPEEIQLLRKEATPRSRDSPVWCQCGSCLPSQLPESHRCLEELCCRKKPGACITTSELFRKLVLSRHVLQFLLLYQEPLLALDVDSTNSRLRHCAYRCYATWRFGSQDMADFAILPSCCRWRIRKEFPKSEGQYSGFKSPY

The target of assay [5] is T4, Flag-USP13(301–624) (human) (UniProt Q92995).
T4 sequence: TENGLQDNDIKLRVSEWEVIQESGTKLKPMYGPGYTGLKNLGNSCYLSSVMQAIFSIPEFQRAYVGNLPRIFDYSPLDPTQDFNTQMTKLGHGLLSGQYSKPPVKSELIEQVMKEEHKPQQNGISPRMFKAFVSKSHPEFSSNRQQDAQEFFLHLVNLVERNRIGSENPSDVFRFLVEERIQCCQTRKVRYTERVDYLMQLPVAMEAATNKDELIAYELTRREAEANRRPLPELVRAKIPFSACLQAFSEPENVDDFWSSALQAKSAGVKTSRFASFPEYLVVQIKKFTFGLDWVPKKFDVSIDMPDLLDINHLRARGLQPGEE

These are yes or no findings as the source states them, for the method shown. In cells and extracts the contact can be indirect. Some results given as binding are weak or reduced against the parent protein; the word gives no strength. For some assays here: Tags and fused reporters may be left off the sequences shown.

As to HA-Paxillin (from UniProt P49023 1-591), the binding entry was “binds” in assay [1]; “binds” in assay [2]; “binds” in assay [3]; “no binding” in assay [4]; “no binding” in assay [5].
